Measurements as given in paper PMC12275093.
Results are given in words; binding and its absence hold for the method and conditions named. Binding seen in cells or lysates may run through a third protein. Where a sequence is shown, tags or fusion partners need not be part of it.

How the values were obtained:
Myc-PABPN1 ΔC = target: T1, Myc-PABPN1 ΔC (UniProt Q86U42); assay: co-IP; anti-Myc IP from lysate of HEK293T cells co-transfected with Myc-tagged PABPN1 deletion mutants and Flag-QKI-6
T1 sequence: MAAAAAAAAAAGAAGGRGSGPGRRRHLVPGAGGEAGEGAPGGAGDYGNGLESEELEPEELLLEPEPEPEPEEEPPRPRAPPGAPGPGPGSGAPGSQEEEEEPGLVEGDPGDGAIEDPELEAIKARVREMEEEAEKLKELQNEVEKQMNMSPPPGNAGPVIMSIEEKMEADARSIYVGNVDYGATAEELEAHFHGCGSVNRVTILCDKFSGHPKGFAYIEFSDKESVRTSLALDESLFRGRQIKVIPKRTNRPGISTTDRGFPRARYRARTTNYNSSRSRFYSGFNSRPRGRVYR

Myc-PABPN1 ΔEP = target: T2, Myc-PABPN1 ΔEP (UniProt Q86U42); assay: as above
T2 sequence: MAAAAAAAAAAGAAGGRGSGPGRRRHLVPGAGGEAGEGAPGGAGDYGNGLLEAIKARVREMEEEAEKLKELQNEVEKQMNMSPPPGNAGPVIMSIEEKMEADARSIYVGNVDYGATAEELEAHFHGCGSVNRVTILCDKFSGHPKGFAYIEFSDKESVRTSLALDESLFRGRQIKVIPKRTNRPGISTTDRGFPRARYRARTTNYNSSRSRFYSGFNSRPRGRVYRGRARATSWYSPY

B1: Flag-QKI-6 (protein, UniProt Q96PU8-9 1-319)
chain: MVGEMETKEKPKPTPDYLMQLMNDKKLMSSLPNFCGIFNHLERLLDEEISRVRKDMYNDTLNGSTEKRSAELPDAVGPIVQLQEKLYVPVKEYPDFNFVGRILGPRGLTAKQLEAETGCKIMVRGKGSMRDKKKEEQNRGKPNWEHLNEDLHVLITVEDAQNRAEIKLKRAVEEVKKLLVPAAEGEDSLKKMQLMELAILNGTYRDANIKSPALAFSLAATAQAAPRIITGPAPVLPPAALRTPTPAGPTIMPLIRQIQTAVMPNGTPHPTAAIVPPGPEAGLIYTPYEYPYTLAPATSILEYPIEPSGVLGMAFPTKG
binding (Myc-PABPN1 ΔC): no binding | binding (Myc-PABPN1 ΔEP): no binding
